Experimental data reported in PubChem BioAssay AID1865 (National Center for Advancing Translational Sciences (NCATS), 2009).
Hit rate of the full screen: of about 280,000 compounds, about 540 (0.19%) were called active. Another 2% or so got no clear call; they are omitted. Calls follow the shape of the dose curve; as a rule, active = well fitted activation curve with a large enough effect; inconclusive = small, poorly fitted or top-dose-only effect; inactive = flat fitted curve, though single readings scatter. Only a part is listed here, and it is no random draw. Some compounds were tested as several samples or in several runs, with calls that do not always agree.

Assay: Quantitative High-Throughput Screen for Regulators of Epigenetic Control; also: nearly all actives have a fitted effect of over 60% in size; as to GFP activation: % of control where 0% means no effect
Conditions: murine LDR cells, GFP reporter derepression, 30 h; series mostly up to 53.9 µM; GFP activation: at the top concentration
Excerpt: NIH Molecular Libraries Screening Centers Network [MLPCN] NIH Chemical Genomics Center [NCGC] MLSCN Grant: 1 X01 MH079860-01 Assay Provider: Elisabeth D. Martinez, University of Texas SW Medical Center NCGC Assay Overview: The Locus Derepression (LDR) assay detects the derepression or induction of a GFP reporter that is stably integrated in a genomic region of murine cells that is presumably silenced. Transcription of the GFP reporter is controlled by a CMV promoter, which normally is constitutively active. However, this cell line, termed LDR, was selected for lack of constitutive production of GFP. GFP production can be induced by incubating the cells with histone deacetylase or DNA methyltransferase inhibitors (Martinez et al., 2006). Compounds that derepress or induce this reporter locus are identified by enumerating GFP positive cells using a laser-scanning microplate cytometer (Auld et al., 2006). This assay was screened against the MLSMR earlier (AID 597; (Johnson et al., 2008) and has been rescreened here against the expanded collection.
NCGC Assay Protocol Summary: Three hundred LDR cells in 5 uL per well were dispensed into black, clear-bottom 1536-well plates. Twenty-three nL compound was transferred to the assay plate and cells were incubated 30 hours at 37 C. Medium was removed, cells were washed two times with PBS, and GFP-positive cells were enumerated as fluorescent objects between the sizes of 20 to 120 um width and depth using an Acumen Explorer. References Auld, DS, Johnson, RL, Zhang, YQ, Veith, H, Jadhav, A, Yasgar, A, Simeonov, A, Zheng, W, Martinez, ED, Westwick, JK, Austin, CP, Inglese, J (2006). Fluorescent protein-based cellular assays analyzed by laser-scanning microplate cytometry in 1536-well plate format. Methods Enzymol 414: 566-89. Johnson, RL, Huang, W, Jadhav, A, Austin, CP, Inglese, J, Martinez, ED (2008). A quantitative high-throughput screen identifies potential epigenetic modulators of gene expression. Anal Biochem 375: 237-48. Martinez, ED, Dull, AB, Beutler, JA, Hager, GL (2006). High-content fluorescence-based screening for epigenetic modulators. Methods Enzymol 414: 21-36.
Potency is read from the fitted curve at half-maximal effect.

SMILES	GFP activation	Potency
COc1ccc(C2(CNC(=O)CCC(=O)O)CCCC2)cc1	inactive: 1.28%	–
Cc1oc(-c2cccc(C(F)(F)F)c2)nc1CN1CCOCC1	–	active: 11.2 µM
C=CCOc1ccc(/C(O)=C2\C(=O)C(=O)N(CCOC)C2c2cccnc2)cc1 (stereo not given)	inactive: -3.17%	–
CC(C)OC(=O)CN1C(=O)S/C(=C/c2ccc(N3CCCCC3)o2)C1=O	–	active: 11.2 µM
CCCCN(CCCNC(=O)CN1C(=O)COc2ccccc21)c1ccccc1	inactive: 7.94%	–
COC(=O)c1ccc(C23CC4(C2)[C@H](CN(Cc2ccc(-c5ccccc5)cc2)[C@@H]4c2ccccc2)C3c2ccc(Cl)nc2)cc1 (stereo not given in full)	inactive: 0.332%	–
COc1ccnc(CSC(N)=Nc2ccccc2OC)c1	–	active: 3.55 µM
CCc1nnc(NC(=O)c2ccc(N3C(=O)CCC3=O)cc2)s1	inactive: -1.01%	–
CCCCOCC(O)CN1CCN(C(C)=O)CC1 (stereo not given)	inactive: -1.05%	–
CCc1cc2c(nc1CC)CCN(CC/C(C)=N/O[C@@H](C)c1cc(-c3c(C)cc(C)cc3C)no1)C2	inactive: 0% [at 10.1 µM]	–
O=C(Nc1ccc(N2CCOCC2)cc1)c1cc2ccccc2o1	inactive: -5.77%	–
CCCC[C@@H]1C[C@H]1C(NC(=O)c1ccco1)c1ccc(Cl)cc1 (stereo not given in full)	inactive: 5.32%	–
CC(NC(=O)c1cc2ccccc2o1)c1ccccc1 (stereo not given)	–	active: 15.8 µM
Cc1ccc2oc(=O)c3cnn(CC(=O)NCCC(C)C)c3c2c1	inactive: 2.56%	–
C=C1C(=O)O[C@@H]2C3OC3(C)CC/C=C(\C)CC[C@@H]12 (stereo not given in full)	inactive: 4.48%	–
CCN(CC)[C@@H](C)CN1c2ccccc2Sc2ccccc21	inactive: -0.295% [at 16.9 µM]	–
O=C(/C=C\c1ccco1)Oc1cccc2cccnc12	inactive: 8.48%	–
CCOCCCNC(=O)C(c1ccc(OC)cc1)N(Cc1cccs1)C(=O)CNC(C)=O (stereo not given)	inactive: -1.12%	–
CCOC(=O)N1CCN(c2c(NCCCOC(C)C)c(=O)c2=O)CC1	inactive: -1.01%	–
CC12C(=O)OC(=O)C1(C)C1CCC2O1 (stereo not given)	–	inactive
CCOC(=O)c1ccc(NC(=O)CSc2nc(-c3ccc(F)cc3)cc(C(F)(F)F)c2C#N)cc1	–	active: 7.08 µM
CCc1ccccc1NC(=O)c1cnn2c(C(F)(F)F)cc(-c3ccc(OC)c(OC)c3)nc12	–	active: 12.6 µM
Cc1nc(SCCO)c2oc3ccccc3c2n1	inactive: 2.58%	–
COc1cc(O)c(C(=O)/C=C/c2ccccc2)c(OC)c1	inactive: 5.33%	–
CCCCOC(=O)c1cc2c(cn1)[nH]c1ccccc12	–	inactive

SMILES	GFP activation	Potency
O=C(COc1ccc(Cl)cc1Br)NNC(=O)C(=O)N1CCCCC1	inactive: 0%	–
CC(=O)Nc1ccc(C2NC(=O)c3ccccc3O2)cc1 (stereo not given)	inactive: -8.77%	–
COc1cc(C(=O)Nc2ccc(N(C)C)cc2)cc(OC)c1OC	inactive: -5.48%	–
CC(=O)Nc1ccccc1NC(=O)CC(C)(C)C	inactive: 0%	–
COC(=O)[C@@H](NC(=O)NCc1ccccc1Cl)C(C)C	inactive: -11.1%	–
Cc1ccc2cc3c(N)c(C(=O)N4CCOCC4)sc3nc2c1	inactive: -6.19%	–
O=C1c2c(O)ccc(O)c2C(=O)c2c(NCCNCCO)ccc(NCCNCCO)c21	–	inactive
CCOc1ccc(C(=O)N2CCN(C(=O)c3ccco3)CC2)cc1OCC	inactive: -12.7%	–
CCn1c(C)cc(/C=C2\NC(=O)N(CC(=O)Nc3ccc(F)cc3)C2=O)c1C	–	active: 25.1 µM
C[C@@]12C(=O)OC(=O)[C@@]1(C)[C@@H]1CC[C@@H]2O1	inactive: 2.6%	–
CC(C)OCc1cc(CN2CCN(c3ccccc3)CC2)c(O)c2ncccc12	–	active: 2 µM
CCN(CC)S(=O)(=O)c1ccc2oc(SCc3ccc(F)cc3)nc2c1	inactive: -19%	–
CCCCCCCCN[C@@H](C)[C@H](O)c1ccc(SC(C)C)cc1	inactive: 1.37% [at 16.9 µM]	–
COc1cc(/C=C(\C#N)c2nc3ccccc3[nH]2)ccc1OC(=O)c1ccco1	inactive: 8.96%	–
CN(C)c1ccc(/C=C2\C(=O)Nc3ccccc32)cc1	–	inactive
CCOC(=O)COc1ccc(Br)cc1/C=C\c1[nH]c(=O)[nH]c(=O)c1[N+](=O)[O-]	inactive: 0%	–
OCc1ccc(-c2nn(Cc3ccccc3)c3ccccc23)o1	inactive: -1.22%	–
CC(C)Cn1c(SCC(=O)c2ccc(Cl)s2)nnc1-c1ccco1	inactive: 4.41%	–
CC(C)N1CCc2c(sc(NC(=O)c3cc(-c4cccs4)nc4ccccc34)c2C(N)=O)C1	–	active: 17.8 µM
COC(=O)c1ccc(N2C(=O)CC(N3CCN(C(=O)c4ccco4)CC3)C2=O)cc1 (stereo not given)	inactive: -14.3%	–
Cc1nc(CSc2nsc(/C=C/N(C)C)c2C#N)cs1	–	active: 6.31 µM
CC(C)N(CCC(=O)c1ccc2ccccc2c1)Cc1ccccc1	inactive: 9.46%	–
Cc1cc2ccccc2n2c(SCC(=O)N3CCN(C(=O)c4ccco4)CC3)nnc12	inactive: 14.7%	–
C[C@@H]1OC2C3=C(C(=O)[C@H]4O[C@@H]4[C@H]3O)[C@@H]1[C@H]1[C@H](C)OC=C3[C@H](O)[C@H]4O[C@H]4/C(=N\OCc4ccccc4)[C@@]321	inactive: 4.24% [at 10.1 µM]	–
CCCCCCc1cc2cc(-c3nnc(-c4ccc(C)cc4)o3)c(=O)oc2cc1O	–	active: 2.24 µM
